In PubChem BioAssay AID1963576 (National Center for Advancing Translational Sciences (NCATS), 2024):
In all, about 46,000 compounds went through this assay and about 60 (0.1%) were called active. About 3% were inconclusive and are not listed. Calls come from the whole dose curve; as a rule, active = well fitted inhibition curve with a large enough effect; inconclusive = small, poorly fitted or top-dose-only effect; inactive = no such curve, though single readings can be large or run the other way. The list shows a part of the results.

Experiment: Primary qHTS assay for Inhibitors of ovarian cancer metastasis using an organotypic tumor microenvironment (TME) model.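 For activity change, negative = inhibition: plate controls were DMSO wells for no effect and tomatine positive control wells for full effect.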 Note: nearly all actives have a fitted effect of over 65% in size.
Settings: SKOV3ip1-GFP adhesion/invasion on 3D omental model, fluorescence; series mostly up to 45.8 µM; activity change, negative = inhibition: at the top concentration
Outline: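 Adhesion/invasion was scored as fixed GFP-labeled SKOV3ip1 cell counts (488/509 nm), normalized to DMSO and tomatine controls. Cancer cells in serum-free medium, with four compound doses (0.36-46 umol/L), sat 2 hr at RT then 16 hr at 37 C on a 48 hr fibroblast/mesothelial/ECM culture.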

Activity change, negative = inhibition, inactive:
O=S(=O)(NCCNCC=Cc1ccc(Br)cc1)c1cccc2cnccc12 7.87%, Cc1cccc(NC(=O)Nc2nnc(N(C)C3CCCCC3)s2)c1C -4.18%, CCOc1ccccc1-n1ccnc(NCc2ccc(F)cc2)c1=O 8.28%, COc1ccc(-c2nn(CC(=O)NC3CCCC3)c3c2cnc2ccc(F)cc23)cc1 6.91%, O=C(CCC(=O)N1Cc2ccccc2Oc2ncccc21)Nc1ccc(Cl)cc1 22.9%, CC[C@H]1OC(=O)[C@H](C)[C@@H](O[C@H]2C[C@@](C)(OC)[C@@H](O)[C@H](C)O2)[C@H](C)[C@@H](O[C@@H]2O[C@H](C)C[C@H](N(C)C)[C@@H]2O)[C@](C)(O)C[C@@H](C)CN(C)[C@H](C)[C@@H](O)[C@]1(C)O 0.441%, O=C(Cn1ncc2c(=O)oc3ccccc3c21)Nc1cc(F)ccc1F -8.7%, COc1ccc(OC)c(NC2=C(c3ccccc3)C(=O)c3ccccc32)c1 -3.81%, COc1ccc(N2CCN(C(=O)c3cc4c(-c5ccccc5F)nn(C)c4s3)CC2)cc1 -0.336%, COC(=O)c1ccc(Cl)cc1NC(=O)N1CC=C(c2c[nH]c3ccccc23)CC1 -0.405%, O=C1CS(=O)(=O)C2(C(=O)N(Cc3cccc(F)c3)c3ccccc32)N1c1ccccc1 (stereo not given) -2.63%, COc1ccc(/C=C(\C#N)c2nc(-c3cc(Cl)ccc3OC)cs2)cc1 -3.36%, Cc1cccc(OCCCC(=O)Nc2sc3c(c2C(N)=O)CCC(C)C3)c1 (stereo not given) 0.314%, CCN(CC)c1nc(-c2ccc(C(C)(C)C)cc2)nc2ccccc12 -3.47%, Oc1ccccc1Nc1nc(-c2ccccc2)c2cc(Cl)ccc2n1 -10.9%, O=C(CSc1nc2nccnc2c(=O)n1CCc1c[nH]c2ccccc12)Nc1ccccc1F -3.48%, CCOc1ccc(NC(=O)c2ccc(NC(=O)CCS(=O)(=O)c3cccs3)cc2)cc1 -8.27%, COc1cc(OC)c(NC(=O)c2c(C)oc3ncn(C)c(=O)c23)cc1Cl 7.77%, Cc1ccc(Cc2nc3ccccc3nc2SCC(=O)N2CCc3ccccc32)cc1 3.06%, CCn1cc(C(=O)N2CCN(c3cccc(Cl)c3)CC2)c(=O)c2cc(S(=O)(=O)N3CCOCC3)ccc21 -8.04%, Cc1ccc(C2CC(=O)N(Cc3ccccc3F)c3c2c(C)nn3-c2nc(C)cc(C)n2)cc1 (stereo not given) 1.6%, Cc1ccc(NC(=O)c2nc(S(C)(=O)=O)ncc2N(Cc2ccccc2)Cc2ccco2)c(C)c1 0.184%, COc1ccc(NC(=O)Nc2nnc(N3CCCCCC3)s2)cc1 0.123%, CN(C)CCNC(=O)C1CCN(c2nc3ccccc3[nH]2)CC1 16.1%, Cc1ccc(CNC(=O)Cn2c3ncccc3c(=O)n2-c2ccccc2)cc1 62.3%, Cc1ccc(C(=O)Nc2c(-c3ccccc3)nc3ccccn23)cc1C -18.8%, CNC[C@H](O)c1cccc(O)c1 0.338%, COc1ccc(NC(=O)c2nnn(Cc3ccccc3C)c2N)c(OC)c1 6.51%, O=C(O)[C@H]1O[C@H](Oc2cc3oc(-c4ccccc4)cc(=O)c3c(O)c2O)[C@H](O)[C@@H](O)[C@H]1O 3.39%, CCCC(=O)NC1CC(=O)N(c2ccc3c(c2)OCCO3)C1 (stereo not given) 10.2%, COc1ccc(S(=O)(=O)Nc2ccc(O)c(Sc3nc4ccccc4s3)c2)cc1 -2.91%, O=C(Nc1cccc(Cl)c1)N1Cc2ccccc2Oc2ncccc21 -4.01%, CCc1ccc(NC(=O)CN2C(=O)C(=O)c3ccccc32)cc1 8.12%, O=C(Nc1cccc(C(=O)OCc2cc(=O)n3nc(C4CC4)sc3n2)c1)c1ccc(F)cc1 -3.09%, Cc1c(C(=O)N(C)C)sc2c1c(=O)n(-c1ccc(Cl)c(Cl)c1)c(=O)n2Cc1ccc(F)cc1 -28.1%, COc1ccccc1C1C(C(N)=O)=C(C)Nc2nc(SCc3ccccc3F)nn21 (stereo not given) 21.9%, Cc1ccccc1CCNC(=O)c1cc2ccccn2n1 4.92%, COc1ccc(NC(=O)CCS(=O)(=O)c2cc(Br)cc3c2N(C(C)=O)CC3)c(OC)c1 -8.48%, O=c1c(-c2ccc(O)cc2)coc2cc(O)cc(O)c12 18.7%, CN(C(=O)CSc1nc2ccc(NC(=O)c3ccc(F)cc3)cc2s1)c1ccccc1 -21.3%, COc1ccc(-c2onc(C)c2C)cc1S(=O)(=O)NC1CCCCC1 2.6%, CCn1cc(C(=O)N(C)Cc2ccccc2)c(=O)c2cc(S(=O)(=O)N3CCCCC3)ccc21 5.03%, Cc1cccc(N2CCN(C(=O)Cn3nc(C)c4sc5ccccc5c4c3=O)CC2C)c1 (stereo not given) 3.84%, Cn1c(=O)n(C)c2cc(CNCc3ccc(C(=O)O)cc3)ccc21 3.65%, Cc1c(C(=O)N2CCOCC2)oc2c1-c1nn(CC(=O)NCc3ccccc3)cc1CC2 7.86%, CSc1ccc(Nc2nn(-c3ccc(OC(F)(F)F)cc3)nc2C(C)=O)cc1 2.09%, Cc1cccc(N2CCN(c3c(CN4CCCC4)c(=O)oc4ccccc34)CC2)c1C 5.92%, Cc1ccc(CN2C(=O)C3(SCC(=O)N3c3ccc(C)c(C)c3)c3ccccc32)cc1 (stereo not given) 3.35%, CCOC(=O)Cn1nc(N2CCN(c3ccc(F)cc3)CC2)ccc1=O 9.23%, CCOC(=O)c1cccc(NC(=O)CCc2c(C)nc3c4cccnc4nn3c2C)c1 17.5%

outcome, inactive:
CC1CCN(S(=O)(=O)c2ccc3c(c2)N(CC(=O)NCc2ccccc2)C(=O)CO3)CC1, COc1ccc2c(CNCC(C)c3ccccc3)c(C(=O)O)n(Cc3ccc(F)cc3Cl)c2c1 (stereo not given), CCOc1ccc(CCNC(=O)CCc2c(C)nc3c(c(C)nn3-c3ccccc3)c2C)cc1OCC, Cc1c(NC(=O)c2cc([N+](=O)[O-])ccc2N2CCOCC2)cccc1-c1nc2ccccc2o1, O=C(CSc1ccc(-c2ccccn2)nn1)Nc1ccc(F)c(F)c1, Cc1nn(-c2ccc(F)cc2)c(-n2cccc2)c1C(=O)N1CCN(c2ccc(F)cc2)CC1, CC(=O)c1ccc(S(=O)(=O)N2CCC(Oc3ccc(-n4cnnn4)cc3)CC2)cc1, OCc1ccc(-c2ccc(-c3ccc(CO)s3)o2)s1, CCOc1ccccc1NC(=O)c1ccc2oc(=O)c(S(=O)(=O)c3ccc(F)cc3)cc2c1, COC(=O)C1=C(c2ccccc2)c2ccccc2S(=O)(=O)N1CC(=O)Nc1cc(C)ccc1C
